Reference: publication PMC10424845, “Gelsevirine is a novel STING-specific inhibitor and mitigates STING-related inflammation in sepsis” (Frontiers in Immunology, 2023)

Molecular target: T1, STING (Homo sapiens, UniProt Q86WV6)
T1 construct: gene STING1; hSTING-CTD
Test: SPR (Biacore T200, CM5 chip, steady-state […] fit); supported by competition in biotin pull-down
Format: binding

T1 sequence (Q86WV6 whole entry): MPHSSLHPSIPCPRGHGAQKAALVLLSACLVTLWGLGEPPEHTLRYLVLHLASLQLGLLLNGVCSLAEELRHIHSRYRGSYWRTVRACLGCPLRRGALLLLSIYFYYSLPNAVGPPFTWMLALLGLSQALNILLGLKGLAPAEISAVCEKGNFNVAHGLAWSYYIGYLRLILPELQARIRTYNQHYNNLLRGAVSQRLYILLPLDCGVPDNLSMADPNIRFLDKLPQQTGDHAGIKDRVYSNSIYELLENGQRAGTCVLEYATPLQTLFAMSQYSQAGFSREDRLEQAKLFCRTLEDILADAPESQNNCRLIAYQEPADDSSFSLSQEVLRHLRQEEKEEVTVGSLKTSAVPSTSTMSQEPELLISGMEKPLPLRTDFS

`C=C[C@]12CN(C)[C@@H]3[C@H]4CO[C@H](C[C@H]41)[C@]1(C(=O)N(OC)c4ccccc41)[C@@H]32` [GS, Gelsevirine] gave a Kd of 27.6 µM.
